Experimental data taken from PubChem BioAssay AID624296 (National Center for Advancing Translational Sciences (NCATS), 2012).
The campaign covered roughly 350,000 compounds. About 9,900 (2.8%) were called active. This list was built around the results that the source calls inconclusive (neither active nor inactive); the mix of calls is not that of the screen. Calls follow the shape of the dose curve; as a rule, active = well fitted activation curve with a large enough effect; inconclusive = small, poorly fitted or top-dose-only effect; inactive = no such curve, though single readings can be large or run the other way. Potencies of inconclusive entries are left out as doubtful fits.

assay: A quantitative high throughput screen for small molecules that induce DNA re-replication in MCF 10a normal breast cells.; also: nearly all actives have a fitted effect of over 50% in size; as to activity, positive = re-replication: % of control where 0% means no effect; details: MCF 10A DNA re-replication, Hoechst nuclear intensity, 48 h; activity, positive = re-replication: at 46.1 µM (top of the series)
Potency is read from the fitted curve at half-maximal effect; tags tell the direction and shape of the fitted curve.

SMILES | Potency | activity, positive = re-replication
COc1ccc2c(c1)nc(SCC(=O)C(C)(C)C)n2C | inconclusive [activator, full curve, poor fit] | –
O=C(COC(=O)c1c2c(nc3ccccc13)CCCC2)c1ccc(Br)s1 | inconclusive [activator, single point] | –
COc1ccc(-c2cc(CNS(=O)(=O)c3ccc(NC(C)=O)cc3)on2)cc1 | inconclusive [activator, single point] | –
CC1CC(C)CN(C(=O)C(NS(=O)(=O)c2ccc(Br)s2)c2ccccc2)C1 (configuration not stated) | active: 16.4 µM | –
O=C(CSc1ccc(Br)cc1)Nc1ccccc1N1CCOCC1 | inconclusive [activator, partial curve, poor fit] | –
Cc1ccc2nc(SCC(=O)NCCCN3CCCC3=O)[nH]c2c1 | – | inactive: -0.0328%
Cc1nn(CC#N)c(=O)n1-c1ccc(F)cc1 | inconclusive [activator, single point] | –
O=C(COC(=O)c1cnccn1)c1ccc(Cl)c([N+](=O)[O-])c1 | inconclusive [activator, single point] | –
COc1cccc(N2CCN(C(=O)c3cc(-c4ccccc4)nc4c3cnn4C(C)C)CC2)c1 | inconclusive [activator, full curve, poor fit] | –
O=C(CCc1[nH]c2ccccc2c1Sc1ccccc1)NCCO | inconclusive [activator, full curve, poor fit] | –
CC(C)(C)c1ccc(C(=O)CC(=O)c2cc(Cl)ccc2O)cc1 | inconclusive [activator, single point] | –
COc1ccc(-c2oc3ccc(-c4ccc5c(c4)OCO5)cc3c2C#CC2(O)CCCCC2)cc1 | inconclusive [activator, partial curve, poor fit] | –
O=C(CSc1nnc(-c2ccc(Cl)cc2)n1Cc1ccco1)Nc1ccc2c(c1)OCCO2 | inconclusive [activator, full curve, poor fit] | –
CCC(C)Sc1ccc(-c2nc3ccc(C)cn3c2NCc2ccccc2)cc1 (configuration not stated) | inconclusive [activator, single point] | –
O=C(CCN1C(=O)[C@@H]2Cc3ccccc3CN2C1=O)Nc1cccc(F)c1 | – | inactive: -16.7%
Cc1ccc(C(C)C)cc1NC(=O)Nc1ccc([N+](=O)[O-])cc1 | inconclusive [activator, single point] | –
COc1cc2c3nnc(-c4ccccc4)c-3cn(Cc3ccc(F)cc3)c2cc1OC | inconclusive [activator, partial curve, poor fit] | –
